Values marked as one replicate rest on one cluster of the flow cell; about a third of the high ones do not repeat.
System: ATP
Assay: switch fluorescence ratio, 500 uM ATP over buffer (Cy3 cluster intensity, sum of 5 cycles each) (fold (ratio)); higher = stronger signal-on switching upon ATP binding; sequences stand for … in TCGTCGGCAGCGTCAGATGTGTATAAGAGACAGTTTTTTTTTTTTTTTTTTTTTTTTT…TC
Conditions: aptamer strand: ATP DNA aptamer (quencher-CACCTGGGGGAGTATTGCGGAGGAAGG + anchor), 100 nM annealed; ATP concentration: 500 uM; one replicate
How it was run: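 Cy3-labelled switching-strand clusters on a modified Illumina MiSeq flow-cell were annealed to 100 nM quencher-labelled ATP aptamer and imaged first in selection buffer, then after 15 min with 500 uM ATP at 22 °C. NaOH stripping and re-annealing separated each of five buffer/ATP cycles, and clusters outside 100-1000 RFU were excluded. The fluorescence ratio sums target-cycle Cy3 intensity over buffer-cycle Cy3 intensity per cluster and averages it per switch-domain sequence.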
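Also: ATP exposure 15 min at 22 °C before imaging.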

Sequence	switch fluorescence ratio
ATGGTTATGG	1
GTAGGGTTAG	0.956
ATTCTTTAGG	1.02
TTAAAGCTAG	0.993
ATTACGATTC	1.02
TAGCATGAT	1.05
ACAACGGTAG	1.03
GTAGGATGGC	0.964
GACTACACGA	1.45
TATGTCTTCG	1.03
TCGTACCGTA	0.937
CCACCAAACA	1.18
TTTTCTGAA	1.01
TTCATCATAA	1.02
GGCCCAGGGT	1.65
AAGATGGAAT	0.991
TCAGGGAGCG	0.991
ACATCAGCAC	1.02
GATGGCCGGG	0.949
CGGATTATTC	1.02
AATTAGCCAG	0.93
TAGGTCACCG	0.986
TATCCGGGCC	0.968

Sequence	switch fluorescence ratio
GATCACTACT	1.07
AAGAGAATAC	1.14
AGTCACGCG	1.04
GTGGACAAAT	1.04
TTGAGATACT	1.09
TCAGTGAAGA	1.01
CAGAGCTCAG	1.05
TAAAGGTATT	1.05
AATCTTCTAC	1.02
ACGGGCCGCG	0.992
CCTTGTAGCA	2.34
CGTAGAACCT	1.17
GTGAAAGAAC	0.982
GGAATCCTAC	1.02
AAGGGGTTG	1
AACATGGCCA	0.995
AAGACCTGTG	0.969
GCAAGAGTAA	0.971
CTCGGTGCAA	1.51
TACCTCATCT	1.12
TATCTAATTG	0.985
TAACGGCGGA	0.976
CATATTATCG	1.03

Sequence	switch fluorescence ratio
ACTTCATTAG	1.01
GGGAATTGAG	0.977
AAGAGTTTG	1
AAGAGCGGAG	0.961
ATCACGGATA	1.04
GCTAATATTC	1.02
TAGGTCCTAG	0.984
TCGAGATATT	1.02
ATTGGCGTCA	0.979
GCACGATCGT	0.97
TATCTTCGAC	0.995
CATCCCCTCT	1.05
CATGGCTACT	1.04
CCGTTAAGC	1.57
TCCGGTTTCA	1.02
ACTTGCATCA	1.05
AATTAGCGGC	1.03
AGATTGCTGG	0.976
TATTGGTGAT	1.01
TTGAAAAT	1.01
CAGAAGGAG	0.995
GGCTGTTTCT	0.933
AAGAAGCAA	1.83

Sequence	switch fluorescence ratio
TGGATTCCGT	1
GTAATTATTG	0.991
CCTAATTAAA	0.992
GCAATTGTGA	0.987
AGTTTGGTTT	0.954
CATTGGGGAC	0.972
GAATCGCGGA	0.98
TAATATCTGA	0.993
AGGTCCGAG	0.942
GGAAGCAACA	1.16
ATCTCGGTAG	0.959
GGCAATCACG	1.18
CTTTGTAACG	1.04
CGAGGCGGTG	1.01
ATTACTAGGG	1.05
GAGCTGCGTC	1.02
TGCTGGCGAA	1.02
CGCGTTCGGC	1
AGCAGTAAGG	1.03
ACAGTTGGG	1.02
TTCAGCAGTG	1.01
TTCACGCGCC	1.1
AGATAGAAGT	1.01

Sequence	switch fluorescence ratio
AGTATGTCAT	0.983
GGATGTTATC	0.97
AAATGTGCAG	1.02
AATTCTGTGA	0.987
AATTCGGTAT	1.06
TTGATACTAA	0.994
AGTCGGAAAC	0.983
CGCGCATAGG	1.12
CGTCTACTCC	3.01
TATACGGCGG	1.02
TGCACCCCTC	1.06
TTGGTCGGTA	1
ATTGAGCATG	0.992
TGGGGAGGAC	1.11
TTGTTCACGG	1.01
CCGGGCCCGT	1.03
ACAATGATAA	1
GGGAACGGAC	1.13
AAATCACTCC	1.16
CCTACTCATG	1.54
CAGTTTAGGT	0.979
GGTATAACCT	1.23
GACGTGAAAG	1.03

Sequence	switch fluorescence ratio
TGCTGGTT	1
AGTTGACCCG	0.974
CAGGGCGCT	0.955
GGGTATTACA	1.04
GGGGAAGTGA	0.975
TGAGTCGTAT	0.958
TTTGCGTTG	0.979
TAATAAAGCG	0.984
AGGGAAGATG	0.99
ACCTGGATCG	1.31
CAAAGTAACG	1.01
ATTGGGTCAA	1.04
CCTAGCAGCA	1.87
TTCCAGTCAC	1.05
GCAACCTCGG	1.02
CGCGTGTCAC	1.03
GCCTTCCTGG	1.44
GCTGCCGTGG	0.991
ATGATGTCCA	1.03
AGGGTTAATC	1.03
CGGCGCAGTC	1.9
TTGCGGCCTG	1.06
ACTCTTCTAG	1.05

Sequence	switch fluorescence ratio
AAAGCTCTCC	2.44
TTTTTGCTG	0.991
TTCTGTCCTT	1.01
GAAGCAGGTG	2.7
CCTTCGTACT	4.76
TAAGTTTATG	0.95
AACTCTCCG	1.25
CTCACGAAGA	1.05
CAAATTCCGT	0.992
CCATCAGAAA	1.05
TACCAAGTTT	1.02
ACCAGATGAT	0.999
ACGTATCACG	0.997
TCCCTGATAG	0.977
TTTAAATATC	1.03
TGTAGTCCCT	0.998
AGTCCATCGC	1.04
AACACATGAC	1.18
GGAAATAATG	1.02
